{
  "source": "paper PMC7819943",
  "about": "“Rice protein-binding microarrays: a tool to detect cis-acting elements near promoter regions in rice”",
  "note": "Some of the results follow.",
  "data": [
    {"target": "T1, OsWOX13 (Oryza sativa, UniProt Q5QMM3 1-267)", "T1 sequence": "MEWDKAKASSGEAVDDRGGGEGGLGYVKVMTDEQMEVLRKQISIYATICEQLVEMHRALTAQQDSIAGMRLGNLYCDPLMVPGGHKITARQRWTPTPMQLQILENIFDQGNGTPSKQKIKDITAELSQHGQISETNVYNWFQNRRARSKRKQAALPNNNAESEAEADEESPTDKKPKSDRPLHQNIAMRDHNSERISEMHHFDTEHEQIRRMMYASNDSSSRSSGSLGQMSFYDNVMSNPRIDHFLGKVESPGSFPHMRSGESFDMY", "experiment": "protein-binding microarray (RPBM); PBS, 2% BSA, 51.3 ng/ul salmon testes DNA, 50 uM zinc acetate, 200 nM TF, 25 C, 1 h; high values mean tight binding", "conditions": "protein: recombinant; tags: N-terminal polyhistidine and DsRed monomer fusion (pET32a); label: CyDye5-dUTP incorporated in the synthesized complementary strand; 3' TTTTT single-stranded linker to array surface; dsDNA, one strand shown", "summary_of_the_method": "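The binding signal for each feature is its fluorescence intensity in arbitrary units. An Axon 4000B scanner was used to read a custom Agilent array that had been made double-stranded with Cy5-dUTP primer extension, blocked with 2% BSA, incubated at 25 °C for 1 h with 200 nM protein in PBS, 2% BSA, salmon testes DNA and 50 µM zinc acetate, and washed. The protein was an N-terminal polyhistidine–DsRed transcription factor fusion from E. coli BL21-CodonPlus, purified on Ni–NTA.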", "values": [
      {"sequence": "TAATATAATAGATTTTCAGTCAGTTAGTGCTATTTGGAGACGGAGTCACCTAGTGCAG", "binding signal": "4800 fluorescence intensity (a.u.)"},
      {"sequence": "CATCATGAAATCATTGTAACTGATTGATCTGTAATTCACTCGGAGTCACCTAGTGCAG", "binding signal": "21300 fluorescence intensity (a.u.)"},
      {"sequence": "CATTTATATTGATGTAAGATTCATTAACATGTGAGAAATGCGGAGTCACCTAGTGCAG", "binding signal": "6760 fluorescence intensity (a.u.)"},
      {"sequence": "TGATTAGGGATAATTACTACTCCCATTGCTTGCTTTCCTCCGGAGTCACCTAGTGCAG", "binding signal": "4290 fluorescence intensity (a.u.)"},
      {"sequence": "ACTCATGCTTACTTGATTGATAGTGGAAGAACCTTTTCTTCGGAGTCACCTAGTGCAG", "binding signal": "28200 fluorescence intensity (a.u.)"},
      {"sequence": "GAGCAATCTATTATTCAGATTACTTTAAGCTGGTAAAGCGCGGAGTCACCTAGTGCAG", "binding signal": "5940 fluorescence intensity (a.u.)"},
      {"sequence": "ACAACCAATCACACTAAATCATGCGCATTGAACTAGAGCCCGGAGTCACCTAGTGCAG", "binding signal": "33900 fluorescence intensity (a.u.)"},
      {"sequence": "TAACTAATCATAACTGCAAGCACATGTGTCTAGTCTAGAACGGAGTCACCTAGTGCAG", "binding signal": "8390 fluorescence intensity (a.u.)"},
      {"sequence": "ACACGCCGTGAATACGCCGTGATTGGGCACTGTTCGGTGTCGGAGTCACCTAGTGCAG", "binding signal": "5030 fluorescence intensity (a.u.)"},
      {"sequence": "GGGAATACTAAATGAATTGATCAAAATCAGGATTGTTCATCGGAGTCACCTAGTGCAG", "binding signal": "4340 fluorescence intensity (a.u.)"},
      {"sequence": "TTTATAATAATTGTAAGTTGTCAGTCCACGTAATTGGAGCCGGAGTCACCTAGTGCAG", "binding signal": "13700 fluorescence intensity (a.u.)"},
      {"sequence": "TTTCCTGTTTACGAATATGATTAATTTTGGTGTTCCGTCGCGGAGTCACCTAGTGCAG", "binding signal": "15300 fluorescence intensity (a.u.)"},
      {"sequence": "CCAACCAGCTGATTTGCAACTTGCCAGTCTGTAATGCATACGGAGTCACCTAGTGCAG", "binding signal": "3740 fluorescence intensity (a.u.)"},
      {"sequence": "CATCAATAATGAAGAAGAAACAAACTAAATACTACCAATCCGGAGTCACCTAGTGCAG", "binding signal": "3670 fluorescence intensity (a.u.)"},
      {"sequence": "CTTTTGTTTCTTTTGATTGCCCGTTCTGAAAGTGATAAACCGGAGTCACCTAGTGCAG", "binding signal": "8390 fluorescence intensity (a.u.)"},
      {"sequence": "ATCAATAATTGAACATATTTTCATAATAAATTTGTCTTGGCGGAGTCACCTAGTGCAG", "binding signal": "42100 fluorescence intensity (a.u.)"},
      {"sequence": "TAAGCTTAATCAATCCATCATTGGCAAATATTTACTATAGCGGAGTCACCTAGTGCAG", "binding signal": "8680 fluorescence intensity (a.u.)"},
      {"sequence": "ATAAATTATTGTGTTACACTGATGTGCCATTCTATGAGTGCGGAGTCACCTAGTGCAG", "binding signal": "23600 fluorescence intensity (a.u.)"},
      {"sequence": "AGAGATGATAGAAATTGATAGGGAGTTTAGTTAGAGATTACGGAGTCACCTAGTGCAG", "binding signal": "26400 fluorescence intensity (a.u.)"},
      {"sequence": "TCAGTCAATTTATAGTTGTTGTTGAGAGGATTTAGAATAGCGGAGTCACCTAGTGCAG", "binding signal": "5170 fluorescence intensity (a.u.)"},
      {"sequence": "AGTCAACAGATAATTACTTAGTAGGACAAAACCAATATCGCGGAGTCACCTAGTGCAG", "binding signal": "5370 fluorescence intensity (a.u.)"},
      {"sequence": "TTAATTAAACACATCCACTATAAAACTCATAGGCAACAATCGGAGTCACCTAGTGCAG", "binding signal": "3970 fluorescence intensity (a.u.)"},
      {"sequence": "AGTCTAATTCCTCCATGATTTCACAATGTGGTGCTACAGTCGGAGTCACCTAGTGCAG", "binding signal": "9510 fluorescence intensity (a.u.)"},
      {"sequence": "ACTAGGACTAGTAGATTAATTAATGTTTCTTTCTCTATTTCGGAGTCACCTAGTGCAG", "binding signal": "3860 fluorescence intensity (a.u.)"},
      {"sequence": "TGATGAATTAGAAATTAATTATTATTTTAAAGATTATCTTCGGAGTCACCTAGTGCAG", "binding signal": "10000 fluorescence intensity (a.u.)"},
      {"sequence": "TTGATTTTACAAAATCTGTTATTACTGCTGATATCAAGTCCGGAGTCACCTAGTGCAG", "binding signal": "4070 fluorescence intensity (a.u.)"},
      {"sequence": "TTTCAGAACAAAATTTGAATGCTATGATTATATATAGGGACGGAGTCACCTAGTGCAG", "binding signal": "3330 fluorescence intensity (a.u.)"},
      {"sequence": "TCCAGCCAAAATTTAAATTTAAAACTCAATTTTAAAGTTACGGAGTCACCTAGTGCAG", "binding signal": "3840 fluorescence intensity (a.u.)"},
      {"sequence": "GTAATTATAATTTATTTTGTTATGAGTTGTTTTATCACTCCGGAGTCACCTAGTGCAG", "binding signal": "6220 fluorescence intensity (a.u.)"},
      {"sequence": "CATGATCACAACCATGACTACAATTAATAACTTGGCAGCACGGAGTCACCTAGTGCAG", "binding signal": "3790 fluorescence intensity (a.u.)"},
      {"sequence": "ATTTTCTATAATTACGTATATGCCCCACACGAACAGTATTCGGAGTCACCTAGTGCAG", "binding signal": "4820 fluorescence intensity (a.u.)"},
      {"sequence": "GAAATTAGCATTAAATGAAATTTTCCTTTGGATTTTCTACCGGAGTCACCTAGTGCAG", "binding signal": "10600 fluorescence intensity (a.u.)"},
      {"sequence": "GTGTGGAGTTAAATTGGTAGGTGCCTTTGATGCTTTCACGCGGAGTCACCTAGTGCAG", "binding signal": "4160 fluorescence intensity (a.u.)"},
      {"sequence": "CTACCATTAATGCTAAACTAAATTTCCAAATGACCCTCCCCGGAGTCACCTAGTGCAG", "binding signal": "6060 fluorescence intensity (a.u.)"},
      {"sequence": "TTGTCTGTTTTCAATCTTTACATGACAATCAGCCATGCTCCGGAGTCACCTAGTGCAG", "binding signal": "3210 fluorescence intensity (a.u.)"},
      {"sequence": "ATGGCCAATTATATGTCGCAATCTCACGAGTAAGCAATAGCGGAGTCACCTAGTGCAG", "binding signal": "4070 fluorescence intensity (a.u.)"},
      {"sequence": "ACTAGGAATTAATTGAAGTAGCTACTGAAAACCGTAGATACGGAGTCACCTAGTGCAG", "binding signal": "15400 fluorescence intensity (a.u.)"},
      {"sequence": "ATGATGATTGGTGTTATATTAATAAAAGAAGTTTATGTACCGGAGTCACCTAGTGCAG", "binding signal": "30800 fluorescence intensity (a.u.)"},
      {"sequence": "TGTGAAAATAATTAAGTCCCCGTTATCTCAGCCATAGGTGCGGAGTCACCTAGTGCAG", "binding signal": "5940 fluorescence intensity (a.u.)"},
      {"sequence": "AATAATTAAATTAAGCTAGCTACTCTGGATAAGTCCTGCACGGAGTCACCTAGTGCAG", "binding signal": "37900 fluorescence intensity (a.u.)"},
      {"sequence": "GGGAGATTTAAATGTTGGATCAATTAGCTTGAGAGGAATGCGGAGTCACCTAGTGCAG", "binding signal": "11200 fluorescence intensity (a.u.)"},
      {"sequence": "AAATAGATAGATGATCTCATATTTCGAAAGTTCAATGGCTCGGAGTCACCTAGTGCAG", "binding signal": "21900 fluorescence intensity (a.u.)"}
    ]}
  ]
}
